# According to PubChem BioAssay AID485344 (National Center for Advancing Translational Sciences (NCATS), 2010):
# Values joined by “and” are separate entries in the source; they are usually repeats but may differ in a detail not shown here. Identical values can stand only once. Out of some 340,000 compounds screened, about 6,900 (2%) were called active. Cut-off read from the data, not from the text of the source: active = inhibition above about 30%; inactive = below that, where a call was filed. The list shows a part of the results, in another mix than the full data. Entries without a call were filed so in the source.
# Target: D(2) dopamine receptor (Homo sapiens) (UniProt P14416)
# Chain of UniProt P14416 (P14416 whole entry, looked up): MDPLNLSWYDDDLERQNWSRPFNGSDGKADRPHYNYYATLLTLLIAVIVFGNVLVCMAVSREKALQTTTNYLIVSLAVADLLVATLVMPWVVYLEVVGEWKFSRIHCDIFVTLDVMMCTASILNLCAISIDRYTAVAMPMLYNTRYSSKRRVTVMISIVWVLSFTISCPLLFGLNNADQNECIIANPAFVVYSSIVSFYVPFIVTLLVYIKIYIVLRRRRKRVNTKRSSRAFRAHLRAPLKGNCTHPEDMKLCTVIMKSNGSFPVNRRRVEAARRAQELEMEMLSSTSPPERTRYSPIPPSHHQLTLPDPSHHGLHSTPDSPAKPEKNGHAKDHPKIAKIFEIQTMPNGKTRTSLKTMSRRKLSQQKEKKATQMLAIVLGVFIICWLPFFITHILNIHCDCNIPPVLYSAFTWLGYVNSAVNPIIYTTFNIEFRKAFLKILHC
# Experiment: HTS Assay for Allosteric Antagonists of the Human D2 Dopamine Receptor: Primary Screen for Antagonists; note: 0% is about no effect
# Conditions: HEK293 TREx D2 cells, calcium flux, dopamine EC80; at 10 µM; stronger effect = higher value
# Summary of the method: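 Tetracycline-induced HEK293 T-REx cells expressing D2 force-coupled to calcium signalling were dye-loaded, exposed to compound for 180 s, then challenged with an EC80 of dopamine; calcium flux was followed kinetically for a further 180 s.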
row,SMILES,inhibition
1,CCN(CC)c1ccc(C(=O)Nc2ccc3nc(N(CC)CC)cc(C)c3c2)cc1,4.52%
2,Cc1ccc2[nH]c(CSc3nnc(NC(=O)COc4ccccc4Cl)s3)cc(=O)c2c1,-10.5%
3,CCc1nnc(NC(=O)CSc2nc3c([nH]c4ccccc43)c(=O)n2-c2ccc(C)cc2)s1,6.92%
4,Cc1ccc(C)c(-c2ccc(=O)n(Cc3ccc(F)cc3Cl)n2)c1,-9.01%
5,O=C(NC1CC2CCCC(C1)N2Cc1ccc(F)cc1)c1ccc(F)cc1 (stereo not drawn),active: 75.3%
6,CCOC(=O)C1CCCN(C(=O)Cn2ncc3c4ccccc4n(Cc4ccc(F)cc4)c3c2=O)C1 (stereo not drawn),-15.1%
7,O=C(COc1ccccc1)Nc1sc2c(c1C(=O)Nc1ccccc1)CCCCC2,5.12%
8,O=C(CCCCCn1c(=O)[nH]c2ccccc2c1=O)N1CCN(c2ccc(Cl)cc2)CC1,21.4%
9,O=S(=O)(c1ccc(F)cc1)N1CCC(N2CCCCCC2)CC1,active: 42%
10,O=C(CSc1ncn[nH]1)N1N=C2/C(=C/c3ccccc3)CCCC2C1c1ccccc1 (stereo not drawn),active: 33.3%
11,COC(=O)c1ccc(CNC(=O)c2nc(Cn3nc(C)c(Br)c3C)no2)cc1,-3.78%
12,COc1cc2c(cc1OC)C(COc1cc(C)cc(C)c1)N(C(=O)c1ccc(S(=O)(=O)N3CCCC3)cc1)CC2 (stereo not drawn),-9.48%
13,O=C(CSc1nc2c([nH]c3ccccc32)c(=O)n1-c1cccc(Cl)c1)NCc1ccccc1,-6.65%
14,CCC(C)Sc1nc2c([nH]c3ccccc32)c(=O)n1C (stereo not drawn),-5.19%
15,COc1ccc(-c2nc(C)c(CCNC(=O)c3ccco3)s2)cc1,22%
16,Cc1ccccc1COC(=O)c1ccc(-c2nnn(Cc3ccccc3F)n2)cc1,0.602%
17,O=c1c(-c2cc(-c3ccc(F)cc3)nc3c2COc2ccc(Cl)cc2-3)coc2ccc(F)cc12,0.0412%
18,CC(=O)N1c2ccc(S(=O)(=O)N3CCN(c4cc(Cl)ccc4C)CC3)cc2CC1C (stereo not drawn),-1.08%
19,CC(=O)Nc1ccc(NC(=O)CSc2cn(CC(=O)N(C(C)C)C(C)C)c3ccccc23)cc1,27.8%
20,Cc1ccc(-c2noc(CN(C3CCCCC3)S(=O)(=O)c3ccc(F)cc3)n2)cc1,-22.1%
21,Cc1cc2oc(C(=O)NCCc3ccc(S(N)(=O)=O)cc3)cc(=O)c2cc1C,-26.1%
22,COc1cc(C(=O)NCc2nnnn2-c2ccc(C)c(C)c2)cc(OC)c1OC,7.31%
23,CCOc1ccccc1CN1C(=O)c2ccccc2C1C(=O)NC1CCCCCC1 (stereo not drawn),28.2%
24,COc1ccc(OCCn2cc(C(=O)c3ccco3)c3ccccc32)cc1,21.4%

row,SMILES,inhibition
1,CCC(=O)N1CCc2cc(S(=O)(=O)NC(Cc3ccccc3)C(=O)NCc3ccc(C)cc3)ccc21 (stereo not drawn),3.57%
2,COC(=O)c1cc2occc2n1Cc1nc(-c2ccccc2C)oc1C,-1.09%
3,Cc1cc(C)n2nc(NCc3ccccc3Cl)nc2n1,-20.3%
4,COc1ccc(CNc2nc(-c3ccco3)nn2S(=O)(=O)c2ccc3ccccc3c2)cc1OC,12.1%
5,Cc1ccc(C)c(NC(=O)Cn2c(=O)n(Cc3nc(C)no3)c(=O)c3cc4c(cc32)OCO4)c1,-5.38%
6,CCc1ccc(NC(=O)Cn2c(=O)n(Cc3ccc4c(c3)OCO4)c(=O)c3oc4ccccc4c32)cc1,-2.17%
7,Cc1cccc(N2C(=O)C(CC(=O)Nc3ccc(F)cc3)N(C3CCCC3)C2=O)c1 (stereo not drawn),-3.04%
8,Cc1ccc(S(=O)(=O)n2nc(-c3ccccc3)nc2NCc2ccccc2Cl)cc1,5.55%
9,Cc1oc2ccc(O)c(CN3CCN(C)CC3)c2c1C(=O)Nc1ccc(C(C)C)cc1,-10.2%
10,Cc1ccc(-c2cc(C(=O)N3CCN(S(=O)(=O)c4ccc(Br)s4)CC3)[nH]n2)cc1C,-7.06%
11,Cc1oc2ccc(O)c(CN(C)Cc3ccccc3)c2c1C(=O)Nc1cccc(C(F)(F)F)c1,-9.09%
12,COc1ccc(C(=O)c2cn(CC(=O)Nc3ccc4c(c3)OCCO4)c3ccc(OC)cc3c2=O)cc1,1.28%
13,COC(=O)[C@H]1[C@H]2C[C@H]3c4[nH]c5ccccc5c4CCN3C[C@H]2CC[C@@H]1O,active: 86.8%
14,COc1cc(NC(=O)Cn2c(=O)oc3cc(S(=O)(=O)N4CCCCCC4)ccc32)cc(OC)c1,7.24%
15,CCOc1ccc(C(=O)NCC(c2cccs2)N(C)C)cc1OCC (stereo not drawn),active: 50.8%
16,COc1cccc(C2=CC(c3ccc(OC)c(OC)c3OC)n3ncnc3N2)c1 (stereo not drawn),-3.55%
17,O=C(CSc1nc(-c2ccccc2)no1)N1CCN(c2ccccc2F)CC1,1.68%
18,O=C(Cn1c(=O)nc(-c2ccccc2)c2ccccc21)Nc1ccc(Cl)c(C(F)(F)F)c1,7.63%
19,CCc1ccc(CNC(=O)CCSCc2ccccc2F)cc1,3.46%
20,Cc1cccnc1NC(=O)CCc1c[nH]c2ccccc12,active: 31.2%
21,Cc1cccc(NS(=O)(=O)c2ccc3[nH]c(=O)ccc3c2)c1C,-28%
22,CCOc1ccc(-n2c(SCC(=O)N3CCCC3)nc3c([nH]c4ccccc43)c2=O)cc1,1.83%
23,COC(=O)C(Cc1c[nH]c2ccccc12)NC(=O)COc1ccc(Cl)cc1Cl (stereo not drawn),24.9%
24,CCN(c1cc(C)cc(C)c1)S(=O)(=O)c1nnc(NC(=O)c2cccs2)s1,-26.7%

row,SMILES,inhibition
1,Cc1ccc(-c2ccc(=O)n(Cc3cc(C)ccc3C)n2)cc1,-18.9%
2,Cc1ccc(-c2nc3cccnc3s2)cc1NC(=O)C(C)C,10.5%
3,CC1=Nc2cc(C(=O)NCCc3ccc(Cl)cc3)ccc2Sc2ccc(C)cc21,-19.5%
4,CCC(CC)C(=O)NC1CC(=O)N(c2ccc3c(c2)OCCO3)C1 (stereo not drawn),-5.9%
5,COc1ccc(CNc2ncnc3onc(C)c23)cc1,6.1%
6,CCCNC(=O)c1ccc2c(c1)ncn2-c1ccc(C)cc1C,16.1%
7,COc1ccc(NC(=O)Cn2c(=O)oc3cc(S(=O)(=O)NC4CCCC4)ccc32)cc1OC,12.5%
8,CCOC(=O)c1c(NC(=O)CS(=O)(=O)c2ccc(C)cc2)sc2c1CCCCC2,-9.35%
9,CC(CN(C)C)CN1c2ccccc2CCc2ccccc21 (stereo not drawn),active: 73.5%
10,CCc1ccc(CNC(=O)c2ccc3c(c2)N=C(C)c2cc(C)ccc2S3)cc1,7.53%
11,COC(=O)c1sccc1NC(=S)N1CCC(C(N)=O)CC1,active: 36.5%
12,CN(C)CCNC(=O)c1ccc(-n2c(-c3ccccc3)cc3c2CCCC3)cc1,14.7%
13,CCCS(=O)(=O)Nc1cc(-c2cn3cccc(C)c3n2)ccc1C,-24.6%
14,CC(C)Oc1ccc(CNC(=O)CCCn2c(=O)c3cccn3c3ccccc32)cc1,-8.01%
15,COc1ccc(-c2cc(C(F)(F)F)c(C#N)c(SCC(=O)Nc3ccc(F)cc3)n2)cc1,4.28%
16,Cc1ccc(S(=O)(=O)N2CCCc3cc(NS(=O)(=O)c4ccc(F)c(C)c4)ccc32)cc1,3.99%
17,Cc1ccc(NCc2cccn2-c2nnc(N3CCC(C(=O)NC(C)C)CC3)s2)cc1,7.37%
18,COc1ccc(-c2cn3nc(N4CCC(C(=O)NCc5ccccc5F)CC4)sc3n2)cc1,7%
19,COc1ccc(S(N)(=O)=O)cc1C(=O)NCCCN1CCN(c2ccccc2OC)CC1,active: 77.4%
20,Cc1ccc(/C=N/NC(=O)c2nnn(-c3nonc3N)c2-c2cccs2)cc1,active: 32%
21,Cc1ccc(S(=O)(=O)c2cn(CC(=O)Nc3ccc(C)c(Cl)c3)c3ccc(C)cc3c2=O)cc1,-5.04%
22,COc1cccc(C(=O)NCCSc2c(-c3ccc(F)cc3)[nH]c3ccccc23)c1OC,-0.692%
23,O=C1CN(C(=O)c2ccc(S(=O)(=O)N3CCCCC3)cc2)C(c2ccc(F)cc2)c2cc(F)ccc2N1 (stereo not drawn),-3.93%
24,Cc1ccc(CNC(=O)C2CCCN(S(=O)(=O)c3ccc4c(c3)oc(=O)n4C)C2)cc1 (stereo not drawn),-15.4%

row,SMILES,inhibition
1,Cc1cc(C)cc(-n2nnc(-c3nc(-c4ccc5c(c4)OCO5)no3)c2C)c1,6.24%
2,COc1cc2c(=O)n(CCC(=O)NCC3CCCO3)c(=O)n(CC(=O)Nc3ccc(C)cc3)c2cc1OC (stereo not drawn),-14.4%
3,CCC(=O)N1c2ccc(S(=O)(=O)N3CCN(c4ccccc4)CC3)cc2CC1C (stereo not drawn),12%
4,CC(=O)c1ccc(NC(=O)c2cn3c4c(ccc(Cl)c4c2=O)OC(C)C3)cc1 (stereo not drawn),-3.23%
5,Cc1ccc(C(=O)NCCn2c(C)cc3ccccc32)cc1C,-0.623%
6,CCOc1ccccc1/C=C/c1onc(C)c1S(=O)(=O)N1CCC(C(=O)N(CC)CC)CC1,9.79% and active: 56.4%
7,O=C1Nc2c(c(=O)[nH]c(=O)n2-c2ccccc2)C1(NS(=O)(=O)c1ccc(Cl)cc1)C(F)(F)F (stereo not drawn),1.51%
8,CCCOc1ccc(-c2nn(-c3ccccc3)cc2C2NC(=O)NC(C)=C2C(=O)OC(C)C)cc1 (stereo not drawn),5.58%
9,Cc1ccc(NC(=O)Cn2c(=O)n(CCCCCC(=O)NCc3ccc(F)cc3)c(=O)c3sccc32)cc1C,-16.9%
10,O=C(Cc1ccc(F)cc1)NC1CC(=O)N(c2ccccc2)C1 (stereo not drawn),-11.6%
11,COc1cc(-c2nnc(SCC(=O)NCc3ccccc3Cl)o2)cc(OC)c1OC,2.18%
12,CCOc1ccc(Cn2nnc3c(=O)[nH]c(C4CCN(C(=O)c5ccccc5)CC4)nc32)cc1,-3.1%
13,COc1ccc(-c2cnnn2-c2ccc(NC(=O)c3ccc(S(=O)(=O)N(C)C)cc3)cc2)cc1,0.603%
14,COc1ccc(-c2cnnn2-c2ccc(NC(=O)c3c(F)cccc3F)cc2)cc1,-0.285%
15,CCOC(=O)c1cnc2cc(-c3ccc(Cl)cc3)nn2c1-c1ccccc1,-9.84%
16,Cc1ccc(C)c(N2CCN(CCCNC(=O)Cn3c(=O)c4cccn4c4cccnc43)CC2)c1,active: 62.7%
17,COc1ccc(C)cc1NC(=O)c1cc(S(=O)(=O)NC2CCCCCC2)ccc1F,-7.7%
18,COc1ccc(Cn2c(=O)[nH]c3cc(C(=O)N4CCN(c5cc(C)ccc5C)CC4)ccc3c2=O)cc1,-10.6%
19,CCC(CC)c1nn2c(=O)cc(COc3ccc(NC(=O)c4ccccc4Cl)cc3)nc2s1,-9.72%
20,NC(=O)c1cc(S(=O)(=O)N2CCN(c3ccc(F)cc3)CC2)cs1,-5.14%
21,Cc1ccccc1CNC(=O)C1CCN(c2nn3cc(-c4ccc(F)cc4)nc3s2)CC1,-4.71%
